# From publication PMC4336329 (PLoS ONE, 2015)
# The whole screen tested about 310,000 compounds, of which about 2,200 (0.71%) showed an effect of 50% or more. Effects have a minus sign here. This is one part of the list.
# Molecular target: human ether-à-go-go-related gene (hERG) potassium channel (human, UniProt Q12809)
# Assay: primary screen, population patch clamp on CHO cells stably expressing hERG
# human ether-à-go-go-related gene (hERG) potassium channel, sequence (Q12809 whole entry, looked up): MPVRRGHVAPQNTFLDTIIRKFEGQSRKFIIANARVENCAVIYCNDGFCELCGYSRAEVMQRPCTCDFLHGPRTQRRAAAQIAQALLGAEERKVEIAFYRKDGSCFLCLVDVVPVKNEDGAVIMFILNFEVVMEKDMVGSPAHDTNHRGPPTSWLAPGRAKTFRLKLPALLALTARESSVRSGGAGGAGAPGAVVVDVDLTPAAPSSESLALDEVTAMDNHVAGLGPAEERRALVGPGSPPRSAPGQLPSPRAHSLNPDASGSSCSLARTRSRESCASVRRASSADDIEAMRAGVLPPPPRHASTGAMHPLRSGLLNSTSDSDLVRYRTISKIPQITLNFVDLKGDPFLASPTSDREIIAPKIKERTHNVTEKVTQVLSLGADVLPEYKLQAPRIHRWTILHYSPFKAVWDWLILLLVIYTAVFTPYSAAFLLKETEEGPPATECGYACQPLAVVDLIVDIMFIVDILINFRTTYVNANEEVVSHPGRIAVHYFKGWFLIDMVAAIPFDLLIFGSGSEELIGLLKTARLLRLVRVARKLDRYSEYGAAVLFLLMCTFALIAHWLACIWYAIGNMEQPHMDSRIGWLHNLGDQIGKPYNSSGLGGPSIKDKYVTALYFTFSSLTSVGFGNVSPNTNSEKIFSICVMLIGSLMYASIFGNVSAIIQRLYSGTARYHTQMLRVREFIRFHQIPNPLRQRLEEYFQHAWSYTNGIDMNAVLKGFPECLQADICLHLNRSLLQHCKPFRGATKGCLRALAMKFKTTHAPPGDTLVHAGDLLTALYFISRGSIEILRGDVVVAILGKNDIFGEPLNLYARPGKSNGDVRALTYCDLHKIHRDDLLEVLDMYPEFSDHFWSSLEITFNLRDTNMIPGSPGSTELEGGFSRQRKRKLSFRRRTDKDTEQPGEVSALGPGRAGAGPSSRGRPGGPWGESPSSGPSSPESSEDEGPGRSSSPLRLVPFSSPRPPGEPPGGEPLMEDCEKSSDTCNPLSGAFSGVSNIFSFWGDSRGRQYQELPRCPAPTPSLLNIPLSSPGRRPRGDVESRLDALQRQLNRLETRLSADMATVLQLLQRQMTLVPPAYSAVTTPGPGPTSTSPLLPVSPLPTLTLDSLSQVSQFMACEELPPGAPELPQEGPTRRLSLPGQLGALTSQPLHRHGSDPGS
row,SMILES,"hERG current change (%, negative = inhibition) at 1uM"
1,CCCN(CCC)Cc1c(C(=O)N/N=C/C(C)=C\c2ccccc2)nnn1-c1nonc1N,31%
2,CC1CCN(C(=O)COC(=O)c2cc(Cl)cc(Cl)c2N)CC1,-2.25%
3,O=C1CC(SCc2nc3ccccc3[nH]2)C(=O)N1c1ccc(F)cc1 (stereo not drawn),9.76%
4,Cc1ccc(C(C(=O)NC2CCCC2)N(C(=O)Cc2cccs2)c2ccc(C)c(C)c2)o1 (stereo not drawn),-22.8%
5,Cc1ccc(NC2CCCN(C(=O)c3cnsn3)C2)cc1C (stereo not drawn),14.3%
6,COc1ccccc1N1CCN(/N=C(\C)c2ccc(O)cc2)CC1,14.2%
7,Cc1ccccc1NS(=O)(=O)c1ccc(-c2ccc(=O)[nH]n2)o1,-4.49%
8,CCCCN(C(=O)Cc1ccc(S(=O)(=O)N2CCOCC2)s1)c1ccccc1,2.22%
9,Cc1cc(NS(=O)(=O)c2ccc(NC(=O)c3cc(-c4cccnc4)nc4ccc(Cl)cc34)cc2)no1,1.9%
10,Cc1cccc(NC(=O)c2cc(NC(=O)c3ccccc3)ccc2N2CCCCC2)c1,3.79%
11,CC1=CC(C)(C)N(C(=O)CSc2nccn2C)c2cc(C)ccc21,12.4%
12,CC(C)O.COc1cccc(C2C3=C(CC(C)(C)CC3=O)Nc3n[nH]c(C)c32)c1 (stereo not drawn),6.07%
13,COc1ccc(N2CCN(CCCNC(=O)C(=O)c3c[nH]c4ccccc34)CC2)cc1,-40.6%
14,NC(=O)C1CCN(C(c2ccccc2Cl)c2nnnn2Cc2ccc3c(c2)OCO3)CC1 (stereo not drawn),1.07%
15,COc1ccc(Cn2nnnc2C(c2cc3cc(C)ccc3[nH]c2=O)N2CCOCC2)cc1 (stereo not drawn),-18.5%
16,CCC(=O)Nc1ccc(C(=O)CSc2nc(N)cc(N)n2)cc1,5.66%
17,CC12CCC(C(=O)NCc3ccccc3Cl)(C(Br)C1=O)C2(C)C (stereo not drawn),14.2%
18,COC(=O)C1CCN(C(=O)c2ccccc2Oc2ccccc2)CC1,10.6%
19,O=C(N/N=C/c1ccc(C(=O)O)cc1)C1=NNC(c2ccccc2)(c2ccccc2)C1,6.8%
20,Cc1cccc(/C=N\N=C\c2cccc(C)c2)c1,15.3%
21,O=C(CN(Cc1ccc(F)cc1)C(=O)CNS(=O)(=O)c1ccc(F)cc1)NCc1ccco1,12.8%
22,COc1cc(NS(=O)(=O)c2ccc(C)c(C)c2)c(OC)cc1Cl,-7.73%

row,SMILES,"hERG current change (%, negative = inhibition) at 1uM"
1,COc1ccc(S(=O)(=O)Cc2ccc(C(=O)N3CCCC3)o2)cc1,12.5%
2,O=C(N/N=C/c1cccs1)c1ccccn1,9.21%
3,Cc1cccc(Nc2nc(-c3ccc(F)c(C)c3)cs2)n1,17%
4,CN(CCc1cn[nH]c1)C(=O)CC1C(=O)NCCN1Cc1ccccc1C(F)(F)F (stereo not drawn),3.96%
5,O=[N+]([O-])/C(C(Cl)=C(Cl)Cl)=C1\Nc2ccccc2O1,12.8%
6,C/C(=N\NC(=O)COc1cccc(C)c1)c1ccc2ccccc2c1O,12.3%
7,Cc1cc(OC2CCCCC2)nc(-c2ccccc2O)n1,17%
8,COc1ccc(N2CCN(C(=O)Cn3nnc(-c4ccc(N(C)C)cc4)n3)CC2)cc1,4.37%
9,Cc1ccc(Nc2cc(C)nc3nc(C)nn23)cc1,-3.09%
10,COCCn1c(SCC(=O)N2CCCC(C)C2)nnc1-c1ccco1 (stereo not drawn),15.2%
11,Cc1ccc2c(c1)S/C(=C/c1ccc[n+](CCO)c1)N2C.[I-],21.4%
12,Cc1ncn(C23CC4CC(CC(O)(C4)C2)C3)n1,2.55%
13,COC(=O)[C@H]1C[C@@H]1[C@H](NC(=O)c1cnccn1)c1ccccc1,8.65%
14,Cc1ccc(-n2c(C)nc3ccsc3c2=O)cc1,6.07%
15,COc1ccc(-c2nnn(CC(=O)N(C3CCCC3)C(C)C(=O)NC3CCCC3)n2)cc1OC (stereo not drawn),-15.8%
16,C=CCc1cccc(/C=N/NC(=O)C(C)Nc2cccc(C)c2)c1O (stereo not drawn),9.73%
17,CCCCN(C)C(=S)Nc1ccc2nc(N3CCN(CC)CC3)cc(C)c2c1,-46.4%
18,CCCCN(CCCC)Cc1ccc(N)cc1,2.73%
19,CC(C)N(CCNC(=O)c1ccc(OCC2CCCO2)cc1)C(C)C (stereo not drawn),15.9%
20,COc1cccc(NC(=O)COc2ccccc2)c1,8.86%
21,CN(C(=S)Nc1ccc(SC(F)F)cc1)C(c1ccccc1)c1ccccc1,6.2%
22,Cc1[nH]nc(Nc2ccccc2)c1[N+](=O)[O-],-3.5%

row,SMILES,"hERG current change (%, negative = inhibition) at 1uM"
1,CNC(=O)c1c(C)noc1C,12.7%
2,Cc1ccc(Cn2ncc3c(NN)ncnc32)cc1,14.2%
3,N#CCSc1nc(-c2ccccc2)nc2ccccc12,11.4%
4,COc1ccc(NC(=O)Nc2cccc(C)n2)cc1,11.2%
5,Cc1cc(C(=O)OCC(=O)NC2CCS(=O)(=O)C2)c(C)n1-c1ccccc1 (stereo not drawn),14.3%
6,Cc1cc(C)c(NC(=O)CS(=O)CC(=O)NCCN2CCCCCC2)c(C)c1 (stereo not drawn),13.4%
7,COc1cc(NC(=O)c2cccc(NC3=NC4CS(=O)(=O)CC4S3)c2)cc(OC)c1OC (stereo not drawn),12.7%
8,CCCc1ccc(OCc2ccc(C(=O)N3CCCC3)o2)cc1,17.7%
9,COc1ccccc1NC(=O)O/N=C(\N)c1ccccc1,8.15%
10,CCN(CC)S(=O)(=O)c1ccc(S(=O)(=O)NCC2CCCO2)cc1 (stereo not drawn),13.5%
11,COc1ccc(-c2nnc(SCC(=O)Nc3ccc(Cl)cc3)n2C)cc1,24.2%
12,CCCC(C(=O)N1CCOCC1)N1C(=O)C2C3C=CC(C3)C2C1=O (stereo not drawn),12.5%
13,COc1ccccc1C(=O)Nc1ccc(OCC(=O)N2CCCCC2)cc1,5.76%
14,CCn1cc2nc(SCC(=O)Nc3ccc(OC)c(OC)c3)n(Cc3ccc(OC)cc3)c(=O)c2n1,8.17%
15,CCc1nc(SCC(=O)c2ccccc2)c2c(=O)n(C)c(=O)n(C)c2n1,4.97%
16,COc1ccc(OC)c(S(=O)(=O)NNC(=S)Nc2ccc3c(c2)OCO3)c1,1.35%
17,O=C(NCCCN1CCOCC1)Nc1ccc(Cc2ccc(NC(=O)NCCCN3CCOCC3)cc2)cc1,6.69%
18,CCOc1ccc(CCNC(=O)c2nnc(CS(=O)(=O)c3ccccc3)o2)cc1OCC,8.59%
19,COc1cc(O)oc1C=Nc1ccc(C(F)(F)F)cc1,5.11%
20,C/C=C(\C)C(=O)N[C@@H](c1ccccc1)[C@@H](O)C(=O)O[C@H]1C[C@@]2(O)[C@@H](OC(=O)c3ccccc3)C3[C@](C)(C(=O)[C@H](O)C(=C1C)C2(C)C)[C@@H](O)C[C@H]1OC[C@@]31OC(C)=O (stereo partly drawn),7.74%
21,CCOC(=O)COc1ccccc1/C=N/Nc1nnc2c3ccccc3n(C)c2n1,15.4%
22,CC(=O)Nc1ccc(S(=O)(=O)NNc2ccc([N+](=O)[O-])cc2)cc1,9.73%

row,SMILES,"hERG current change (%, negative = inhibition) at 1uM"
1,Br.CC(=O)c1sc(Nc2ccc(C)cc2)nc1C,11.6%
2,CC(C)C(=O)NC(Nc1ccc(S(N)(=O)=O)cc1)C(Cl)(Cl)Cl (stereo not drawn),1.29%
3,CCNC(=S)N(Cc1cc2cc(C)ccc2[nH]c1=O)C1CCCC1,6.05%
4,CC(=O)NC(Cc1c[nH]c2ccccc12)C(=O)OCC(=O)Nc1cc(C)on1 (stereo not drawn),9.67%
5,CC(=O)/C=C(/C)NC(Cc1c[nH]c2ccccc12)C(=O)O (stereo not drawn) [3713680],10.1%
6,CNC(=O)C(=O)NCC1OCCN1S(=O)(=O)c1ccc([N+](=O)[O-])cc1 (stereo not drawn),2.47%
7,COc1cccc(C2c3c(C)nn(-c4ccc([N+](=O)[O-])cc4)c3N=C3C(=O)Nc4ccccc4N32)c1 (stereo not drawn),9.71%
8,Cc1ccccc1-c1cc(C(=O)Nc2sc(C)c(C)c2C(N)=O)c2ccccc2n1,14.3%
9,COc1ccc(OC)c(CNC(=O)CCc2nc(-c3cccs3)no2)c1,12.8%
10,CN(C)C1=NCCN1CCC1CCCC1,4.29%
11,Cc1cc(NC(=O)NC2CCCN2S(=O)(=O)c2ccc(Cl)cc2)no1 (stereo not drawn),-8.64%
12,C=CCn1c(Sc2nc(C)cs2)nc2c1c(=O)[nH]c(=O)n2C,9.98%
13,O=C(Cn1nc(-c2ccccc2)ccc1=O)NCCCN1CCOCC1,3.63%
14,CCO[C@@H]1OC(C(=O)Nc2ccccc2)=C[C@H](c2ccccc2)[C@H]1CCCO,11.5%
15,COc1ccc(C(=O)NC(=S)NC(C)c2ccccc2)cc1 (stereo not drawn),13.7%
16,CCCCNCc1nc2ccccc2c(=O)[nH]1.Cl,12.7%
17,CCN(CC)S(=O)(=O)c1ccc(N(C)Cc2ccc(C(F)(F)F)cc2)nc1,10.7%
18,CCOc1cc(C(=O)NC(C)CCc2ccccc2)cc(OCC)c1OCC (stereo not drawn),6.56%
19,O=C(O)c1cc(N/N=C/c2ccncc2)ccc1Cl,5.3%
20,Cc1ccc([N+](=O)[O-])cc1NC(=O)c1ccc(-c2ccccc2)cc1,8.42%
21,O=C(C1=C(O)C(=O)N(CCN2CCOCC2)C1c1ccc(F)cc1)c1cc2ccccc2o1 (stereo not drawn),8.81%
